In the supplement of paper PMC11417369:
The other results are listed elsewhere or left out.

What follows are sequences tested on PfHDP1 homeodomain (GST-tagged) (assay: gcPBM binding intensity (ln(normalized median fluorescence intensity)); higher = stronger DNA binding).
Procedure, shortened: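 GST-tagged P. falciparum DNA-binding domains produced in E. coli were incubated for 1 h on an Agilent 4 × 180k array of primer-extended double-stranded 36-bp intergenic genomic probes with negative controls. Binding intensity is the highest Masliner-normalised natural-log median intensity across replicate spots of either probe orientation, with bound protein detected by Alexa488 anti-GST antibody at 488 nm.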

Sequence	gcPBM binding intensity (ln)
TAATATAATCTGAGTGCACACAAATAAATAAACATA [CACACA_site8032]	11.2
AAAAGGAACGGACACACACACATATATATATATATA [CACACA_site5894]	9.45
TATGCAAATTAATAATGTACGAAATATTTATAATTT [XGTACX_site2324]	6.73
ATTTTGTATTGACGCTGTACAAACATTAATATAATA [XGTACX_site2496]	6.45
TTTTGCGTAGCAACGAGGTTTTTAAAAATGTAACCA [GTGCAC_negctrl_site691]	6.42
AACAAAATAAAACACACACACAAATGTACATATATA [CACACA_site2424]	7.01
TAGAAGCATCATTTTACACACATGCAAATGTAAACT [CACACA_site6973]	6.66
GTATATTTAAATAAAAGTACGTAAAGATATATTTAA [XGTACX_site8087]	6.53
ATAATATGCAATATTACACACAATTCATCATTTTTT [CACACA_site7477]	8.46
TTTTTTTTTATTATCATGCACACATTTTTTTTTTTT [CACACA_site2254]	9.1
ACATATGAATATTTTTGTACGTATATTGTTATTCTT [XGTACX_site4720]	6.85
AAAAAAAAAAAACACACACACACATACAAAATATAT [CACACA_site1448]	6.76
AATTATACGAAATAAAACTTAATAGACAAAAAATTA [CACACA_negctrl_site1384]	6.3
GTAATTTAAATAACAAGTACTAATGTGGATAAGCAG [XGTACX_site1163]	7.27
GAACAAAAGGAATGTTGTACATAAAAAATGAAAAAT [XGTACX_site3929]	6.66
AAAAAAATTAAACACACACACACATATATATATATA [CACACA_site4718]	9.13
ATATATATGTATATGTGTACTTATATTTGTCATTTT [XGTACX_site1317]	6.25
TTTTTTTTTTATTTTGCACACTTCTAATTTAGTTGT [CACACA_site3429]	10.7
AAAAAAGTAAAAAGTGCATGTAAAATATAAGTATCT [TGCATGCA_site55]	7.29
GTTATTCTTAATTTTTGTACACATTTTTATATTATT [XGTACX_site7227]	7.53
TAAAGGCAAACAAACACACACACATATATACATATA [CACACA_site2123]	6.69
AAAAATTAACAAAAGGTGCAAACAAATAGTGGTTTT [GTGCAC_site9998]	8.6

Sequence	gcPBM binding intensity (ln)
CCAATACTGTTTAAATGTACAAGTAGGAGGTTAATT [XGTACX_site7260]	6.64
TCCTGCCTCTCTTTGGTGCGTTGTAACCCTCGAGGA	6.6
AAAATTTAATATAATGCACACATAAAAAAAAATTCA [CACACA_site8640]	9.79
TAAATTATTTATAAAGCACACAAGAAAAAATAAAAT [CACACA_site2132]	6.99
ATATTAATATACATATGTACATATATATATATATAT [XGTACX_site7425]	9.18
TAAAGTGTAAAGAAGGTGCTCATTATTTATTTTTTT	6.26
TTTATATCGACTCTTCTTTATATAAGTTGTGATGTT [TGCATGCA_negctrl_site362]	6.55
TTATACTTTTTTTCTTGGTGTAGAAAAAAAAGTTAG [CACACA_negctrl_site1207]	6.29
ATATGATATATTTTATGTACATATAAAACATATATA [XGTACX_site4297]	6.25
TTTATATTAGGTCTTGAACGATTTTCATCATTATTA [TGCATGCA_negctrl_site100]	6.04
AAAAAAGAAACAAACACACATACATACAAACAAACA [CACACA_site142]	7
AGTTTCCTTGAGAAAAGTACGTAATACTACATATAT [XGTACX_site818]	6.16
AAATTGTAGAAGCGTATTTCTCGAACTGGATGAATA [CACACA_negctrl_site1373]	6.64
AATTAATGGAAACAAGTCAAATGATCTTTATGCATA [TGCATGCA_negctrl_site540]	6.43
AATTCCTATAATGAGAGTACGCATTAGAACAGTAGG [XGTACX_site5721]	6.4
TTGATAAAAAAAAAAAAATAAAAAAAAAATAAAAAA [XGTACX_negctrl_site480]	5.86
TTTAAAAGATAAAGACTGCACTTTAAGCACACAAAT [GTGCAC_site9752]	6.95
AATAAATATATAAATACACACAAACATACAGATATA [CACACA_site6088]	7.03
GAGATTTATTTATGTGCACACTAGAACAATTGGATC [CACACA_site2090]	10.5
TTTTTTTTTTTTGTGCGTACATACCATTTTAATAAT [XGTACX_site2760]	6.66
CTTTTTTCAAAACACACACACAAGAAAATATATATA [CACACA_site3109]	7.26
AAGACATTTTTTAAGGTGCTTTGGAAAAAGGAGTAT [GTGCAC_site9816]	6.58

Sequence	gcPBM binding intensity (ln)
TATTATATATCAAAATGTACATTAATTTGAGTAATT [XGTACX_site5434]	6.37
GATGTGATGTATTTGGTATTTTTCGATGTTGGTAGG [CACACA_negctrl_site355]	6.82
TTTTTGCTATTCTATTATATATATAATATATTTTAC [CACACA_negctrl_site262]	7.02
TTACCTCTTTGAAATATACACACTAATCATATCAAC [CACACA_site8778]	6.83
TGTTCAGTAGGGCACACACACAACAAAATAAAAAAA [CACACA_site378]	6.86
TAAAAACGATTTTTTGCACACACATAATAAGCAGAA [CACACA_site3870]	10.2
AAAAATGATATGAGTTGTACATAAGTAAGAATTATT [XGTACX_site7089]	6.22
GGACAAGTTAAACGCACACAAATATATACCCCCATA [CACACA_site4996]	7.91
TATAATAAAATATGTACACACATACACCCATATATA [CACACA_site4808]	6.83
ACAAGTAATTAAGAGTGTACATAACTATAAATCCAA [XGTACX_site5215]	6.38
TGTATGTATGTATTATTTGTTATTTTAATTTTTTTG [TGCATGCA_negctrl_site256]	7.03
GATATGATGAGATTGATATTCATAAGAGGATTAATG [GTGCAC_negctrl_site515]	6.24
ATTATAATTGCATATACACACAAAGGTTCATAACAA [CACACA_site7440]	7.62
ACATATATAAAATAATGTACATTTTTAAGAATGCGT [XGTACX_site7654]	6.5
ATGAGTTACATGGGAAAAATATATATATATATATAT [CACACA_negctrl_site579]	9.38
TGATAAATATGGAGCACACACACATAAACATACATA [CACACA_site420]	7.23
TTGTATCCTTAATGCATGCACCAAATAACAAAAGTA	9.31
TTTAAAAGATAAAACACACATACTAATAAAAAACAA [CACACA_site2556]	7.29
TTGTTGTATTATTTATGTACATATGTATATGTATAT [XGTACX_site1315]	6.82
AAAAAAAAAAAAAAAAGGGGGGGAGGGATTGAAAAA [CACACA_negctrl_site193]	7.97
ACAGTATTTCGAGATGGTACACATATATATATATAT [XGTACX_site6880]	9.39
AATGAGGATATATACACACATACATTAAAAAAATAT [CACACA_site1849]	6.67

Sequence	gcPBM binding intensity (ln)
AAATAAAATAAAATAAAATAAAATAAAATAAAATAA [XGTACX_negctrl_site142]	6.37
TTATTTATGAGGGTGACACACAAAAGAGTGTTAAGA [CACACA_site277]	6.22
AAAAAAAAACACGCATGTACATAAAAATAATCATAC [XGTACX_site1086]	6.87
TACTTATTTGATTGGGTGCATATATATAGTATGTAT [GTGCAC_site9845]	9.2
AATAATAATTTAAAAAGTACATTCTAATAAACACGT [XGTACX_site1444]	6.62
TATTTCAAATGTTATGTGCACATATTAATCCTACTT [GTGCAC_site9738]	10.7
AATATCTGAAAATAAAGTACAAACATATTATAAATA [XGTACX_site5738]	6.53
TTTTTTTTTTTTTTTGGTACACATTTTGGTTAATGG [XGTACX_site5109]	6.48
AAAATTATGCAGTAGGTGCAATACCCTCGGCTTTTT [GTGCAC_site9556]	9.44
ATAAAAAGGTTTAAAAAAAAAAAAAAAAAAAAAAAA [CACACA_negctrl_site412]	6
CTTGTGCTTTATAGGGTGCACATTTTGTTTTGGTAA [GTGCAC_site9899]	9.59
TGAACACATACATACACACACACAAAAAAAAAAAAA [CACACA_site392]	6.73
TTATTAATTATATATAGTACACATTTCACAGATGGG [XGTACX_site2349]	6.7
GATGAAATATCATTACGTACACAATAGTTTGTATTT [XGTACX_site5143]	6.36
AATGAATAAATAAACACACACACATATATATATATG [CACACA_site18]	6.98
ATTATTGCAATTTAATGTACATAATACAAATTTGCC [XGTACX_site2729]	9.65
TATACGTATACCTATACACACATATATATATATATA [CACACA_site1273]	9.31
TATATTCAAAAAAATTCATTTCTGATTTTTTTTTTT [CACACA_negctrl_site1085]	6.09
AATAATAATAGAAACACACACACATTTTTAAGAATA [CACACA_site6692]	6.79
TGAAAAAAAAAATGCACACGCATACAGATAATATGT [CACACA_site4526]	8.98
TGAAGGTTTCAAAAACGTACAAAAAAAAATGTTAGT [XGTACX_site8803]	6.87
TTTAGAAATAAATACACACATACATTTTTGTATACA [CACACA_site718]	6.32
